Source: the antibiotic and cytotoxicity screens of Wong et al. (2023)
Some of the results follow.

Assays:
HSkMC = human skeletal muscle cells; test: cytotoxicity call (relative viability < 0.9); details: 10 µM
HepG2 = test: cytotoxicity call (relative viability < 0.9); details: 10 µM
S. aureus RN4220 = test: growth inhibition call (relative growth <= 0.2); details: 50 µM

Row | SMILES | cytotoxicity call (HSkMC) | cytotoxicity call (HepG2) | growth inhibition call (S. aureus RN4220)
1 | C[C@@H]1CN([C@@H](C)CO)C(=O)Cc2cc(NC(=O)Nc3ccc(C(F)(F)F)cc3)ccc2O[C@@H]1CN(C)Cc1ccc(-c2ccccc2)cc1 | active | active | inactive
2 | NC1CCCCC1N.O=C1[O][Pt][O]C1=O (configuration not stated) | inactive | active | inactive
3 | C[C@@H]1CN([C@@H](C)CO)C(=O)c2cc(NS(=O)(=O)c3ccccc3)ccc2O[C@@H](C)CCCCO[C@@H]1CN(C)Cc1ccc2c(c1)OCO2 | inactive | inactive | inactive
4 | Cc1ccc(S(=O)(=O)Nc2ccc3c(c2)C(=O)N([C@@H](C)CO)C[C@@H](C)[C@H](CN(C)S(=O)(=O)c2cccs2)O3)cc1 | inactive | inactive | inactive
5 | COc1ncccc1C#N | inactive | inactive | inactive
6 | O=C(O)c1cn(C2CC2)c2cc(N3CCNCC3)c(F)cc2c1=O | inactive | inactive | inactive
7 | C[C@@H]1CN([C@H](C)CO)C(=O)c2cc(NC(=O)Nc3cccc4ccccc34)ccc2O[C@@H](C)CCCCO[C@H]1CN(C)C(=O)Nc1ccc(C(F)(F)F)cc1 | inactive | inactive | inactive
8 | Cc1noc(C)c1S(=O)(=O)N(C)C[C@H]1OCCCC[C@H](C)Oc2ccc(NC(=O)Nc3ccc(F)cc3)cc2C(=O)N([C@H](C)CO)C[C@@H]1C | inactive | inactive | inactive
9 | C[C@@H]1CN([C@@H](C)CO)C(=O)Cc2cc(NC(=O)NC3CCCCC3)ccc2O[C@H]1CN(C)Cc1ccc(C(=O)Nc2ccccc2N)cc1 | inactive | inactive | inactive
10 | C/C=C/c1ccc([C@H]2[C@@H](CO)N(S(=O)(=O)Cc3ccccc3)C23CN(C(=O)C2CCOCC2)C3)cc1 | inactive | inactive | inactive
11 | COc1ccc(CN(C)C[C@@H]2OCCCC[C@@H](C)Oc3ccc(NC(=O)C4CCCCC4)cc3C(=O)N([C@H](C)CO)C[C@H]2C)cc1 | inactive | inactive | inactive
12 | C[C@@H]1CN([C@H](C)CO)C(=O)c2cc(NS(=O)(=O)c3cn(C)cn3)ccc2O[C@H]1CN(C)Cc1ccc2c(c1)OCO2 | inactive | inactive | inactive
13 | COC(=O)[C@H](Cc1ccccc1)N1CC2=C[C@H](C3CC3)n3c(=O)n(C)c(=O)n3[C@@H]2[C@H]1[C@H](O)Cc1ccccc1 | inactive | inactive | inactive
14 | C[C@H](CO)N1C[C@H](C)[C@@H](CN(C)C(=O)Nc2ccc(C(F)(F)F)cc2)Oc2c(NC(=O)CCCCCC(=O)Nc3ccccc3N)cccc2C1=O | inactive | inactive | inactive
15 | C[C@@H]1CCCCO[C@@H](CN(C)S(=O)(=O)c2ccccc2)[C@@H](C)CN([C@H](C)CO)C(=O)c2cc(NC(=O)Nc3ccc(F)cc3)ccc2O1 | inactive | inactive | inactive
16 | Cc1noc(C)c1NC(=O)N(C)C[C@@H]1OCCCC[C@H](C)Oc2ccc(NC(=O)Nc3ccc4c(c3)OCO4)cc2C(=O)N([C@@H](C)CO)C[C@H]1C | inactive | inactive | inactive
17 | COCC#Cc1cnc2c(c1)C(=O)N([C@H](C)CO)C[C@@H](C)[C@@H](CN(C)C(=O)c1cnccn1)O2 | inactive | inactive | inactive
18 | C[C@@H]1CN([C@@H](C)CO)C(=O)CCCn2nncc2CO[C@H]1CN(C)S(C)(=O)=O | inactive | inactive | inactive
19 | C[C@@H]1CCCCO[C@@H](CN(C)C(=O)Cc2ccccc2)[C@@H](C)CN([C@H](C)CO)C(=O)c2cc(NC(=O)C3CCCCC3)ccc2O1 | inactive | inactive | inactive
20 | COCC#Cc1ccc2c(c1)O[C@@H](CN(C)S(=O)(=O)c1ccc(F)cc1)[C@H](C)CN([C@@H](C)CO)S2(=O)=O | inactive | inactive | inactive
21 | C[C@H](CO)N1C[C@H](C)[C@@H](CN(C)S(=O)(=O)c2cccs2)OCCCC[C@H](C)Oc2ccc(NC(=O)Nc3ccc4c(c3)OCO4)cc2C1=O | active | inactive | inactive
22 | CS(=O)(=O)N1CCO[C@]2(COCCN(c3cncnc3)C2)C1 | inactive | inactive | inactive
23 | O=C1C[C@]2(c3ccc([N+](=O)[O-])cc3)C(=O)N(CCN3CCOCC3)c3cc(CO)ccc3[C@H]2N1C1CCCCC1 | inactive | inactive | inactive
24 | CC1(C)CC(Nc2ccc(Nc3ccccc3)cc2)CC(C)(C)N1 | inactive | inactive | inactive
25 | COc1ccc(S(=O)(=O)Nc2ccc3c(c2)[C@@H]2C[C@@H](CC(=O)NCC4CC4)O[C@@H](CO)[C@@H]2O3)cc1 | inactive | inactive | inactive
26 | O=C(C[C@H]1CC[C@H]2[C@@H](COC[C@@H](O)CN2C(=O)Nc2ccc(Cl)c(Cl)c2)O1)NCc1ccc(Cl)c(Cl)c1 | inactive | active | inactive
27 | C[C@H](CO)N1C[C@H](C)[C@@H](CN(C)S(=O)(=O)c2ccccc2)Oc2ncc(-c3cccc(C(=O)N(C)C)c3)cc2C1=O | inactive | inactive | inactive

Row | SMILES | cytotoxicity call (HSkMC) | cytotoxicity call (HepG2) | growth inhibition call (S. aureus RN4220)
28 | C[C@@H]1CCCCO[C@@H](CN(C)C(=O)NC2CCCCC2)[C@@H](C)CN([C@@H](C)CO)C(=O)c2cc(NC(=O)CCC(F)(F)F)ccc2O1 | inactive | inactive | inactive
29 | Cc1ccc(S(=O)(=O)Nc2ccc3c(c2)C(=O)N([C@H](C)CO)C[C@@H](C)[C@H](CN(C)S(=O)(=O)c2ccc(Cl)cc2)OCCCC[C@H](C)O3)cc1 | inactive | inactive | inactive
30 | C[C@H]1CCCCO[C@H](CN(C)C(=O)Nc2ccccc2)[C@@H](C)CN([C@@H](C)CO)C(=O)c2cc(NC(=O)Nc3cccc4ccccc34)ccc2O1 | inactive | inactive | inactive
31 | CN(C)CC(=O)N1[C@@H]2Cn3c(ccc(-c4ccccc4)c3=O)[C@H]1[C@@H](C(=O)N1CCN(C)CC1)[C@@H]2CO | inactive | inactive | inactive
32 | O=C1CCCN1C[C@H]1CCCNC1 | inactive | inactive | inactive
33 | CCS(=O)(=O)N1C[C@]2(CN(Cc3cccc(c3)Cl)[C@H](CO)c3c2c2ccc(cc2n3C)OC)C1 | inactive | inactive | inactive
34 | COc1ccc(NC(=O)N(C)C[C@H]2OCCCC[C@@H](C)Oc3ccc(NC(=O)Nc4ccc(F)cc4)cc3C(=O)N([C@H](C)CO)C[C@H]2C)cc1 | inactive | inactive | inactive
35 | Cc1ccc(N2C(=O)c3ccccc3[C@@H](C(=O)NCCN3CCOCC3)[C@@H]2c2ccc(CO)cc2)nc1 | inactive | inactive | inactive
36 | C[C@H]1CN([C@@H](C)CO)C(=O)CCCn2nncc2CO[C@H]1CN(C)C(=O)Nc1ccccc1C(F)(F)F | inactive | active | inactive
37 | C[C@@H]1CN([C@H](C)CO)C(=O)Cc2cc(NS(=O)(=O)c3ccccc3)ccc2O[C@@H]1CN(C)Cc1ccc(Oc2ccccc2)cc1 | active | active | inactive
38 | C[C@@H]1CN([C@@H](C)CO)C(=O)c2cc(NC(=O)c3ccncc3)ccc2O[C@H]1CN(C)S(=O)(=O)c1ccccc1 | inactive | inactive | inactive
39 | C=CCCC(=O)N(C)[C@H](C)[C@H](OC(=O)[C@@H]1[C@@H]2C=C[C@]3(O2)[C@H](C(=O)N(CC=C)Cc2ccccc2)N(C(C)(C)C)C(=O)[C@@H]13)c1ccccc1 | inactive | inactive | inactive
40 | COc1ccc(S(=O)(=O)Nc2cccc3c2O[C@H](CN(C)Cc2ccncc2)[C@@H](C)CN([C@@H](C)CO)C3=O)cc1 | inactive | inactive | inactive
41 | COc1ccc(S(=O)(=O)N(C)C[C@H]2Oc3ccc(NC(=O)Nc4cccc5ccccc45)cc3C(=O)N([C@@H](C)CO)C[C@H]2C)cc1 | inactive | inactive | inactive
42 | CC(=O)N[C@@H](CCC(N)=O)C(=O)O | inactive | inactive | inactive
43 | COc1ccc(NC(=O)N(C)C[C@@H]2OCCCC[C@@H](C)Oc3ccc(NS(=O)(=O)c4ccc(Cl)cc4)cc3C(=O)N([C@H](C)CO)C[C@H]2C)cc1 | inactive | inactive | inactive
44 | CN(C)C(=O)C[C@@H]1CC[C@@H]2[C@H](COC[C@H](O)CN2S(=O)(=O)c2ccc(Oc3ccccc3)cc2)O1 | inactive | inactive | inactive
45 | C[C@@H]1CN([C@@H](C)CO)C(=O)c2cc(NC(=O)NC3CCCCC3)ccc2O[C@@H](C)CCCCO[C@H]1CN(C)C(=O)Nc1cccc2ccccc12 | inactive | inactive | inactive
46 | O=C1CN(S(=O)(=O)Cc2ccccc2)C[C@@H]2[C@H](c3ccc(C#Cc4cccc(F)c4)cc3)[C@H](CO)N12 | inactive | active | inactive
47 | Cc1ccc(S(=O)(=O)Nc2ccc3c(c2)C(=O)N([C@@H](C)CO)C[C@H](C)[C@H](CN(C)Cc2ccc(-c4ccccc4)cc2)O3)cc1 | inactive | inactive | inactive
48 | NCc1nnc2n1CCCCC2 | inactive | inactive | inactive
49 | COc1ccc(S(=O)(=O)Nc2ccc3c(c2)C(=O)N([C@@H](C)CO)C[C@H](C)[C@H](CN(C)C(=O)c2ccccc2)OCCCC[C@H](C)O3)cc1 | inactive | inactive | inactive
50 | C[C@@H]1CN([C@H](C)CO)C(=O)c2cc(NS(=O)(=O)c3ccc(Cl)cc3)ccc2O[C@@H](C)CCCCO[C@H]1CN(C)Cc1ccc(Cl)c(Cl)c1 | active | active | inactive
51 | COc1ccc2c3c([nH]c2c1)[C@H](CO)N(C[C@]13CN(C1)S(=O)(=O)C)C(=O)C1CCOCC1 | inactive | inactive | inactive
52 | C[C@H](CO)N1C[C@H](C)[C@H](CN(C)C(=O)NC2CCCCC2)Oc2c(NS(=O)(=O)c3cn(C)cn3)cccc2C1=O | inactive | inactive | inactive
53 | Cc1cn(CC(=O)NCCN)c(=O)[nH]c1=O | inactive | inactive | inactive
54 | C[C@@H]1CN([C@H](C)CO)C(=O)c2cccc(NC(=O)C3CCCCC3)c2O[C@@H]1CN(C)C(=O)Nc1cccc2ccccc12 | inactive | inactive | inactive
